Assay results as given in PubChem BioAssay AID2147 (National Center for Advancing Translational Sciences (NCATS), 2009).
Out of some 230,000 compounds screened, about 3,600 (1.6%) were called active. Inconclusive results, whose numbers are uncertain, are shown with a selection of clear calls. Calls come from the whole dose curve; as a rule, active = well fitted inhibition curve with a large enough effect (not every such curve was filed as active); inconclusive = small, poorly fitted or top-dose-only effect, or another doubt; inactive = no such curve, though single readings can be large or run the other way. A potency beside an inconclusive call is a rough fit, not a confirmed value.

Each compound was assayed against Lysine-specific demethylase 4E (Homo sapiens) (UniProt B2RXH2) (assay: qHTS Assay for Inhibitors of Human Jumonji Domain Containing 2E (JMJD2E)). Conditions: JMJD2E catalytic domain, FDH-coupled NADH fluorescence (FDH is formaldehyde dehydrogenase); series mostly up to 57.1 µM; activity change, negative = inhibition: at the top concentration.
Note: nearly all actives have a fitted effect of over 50% in size.
Potency is the fitted concentration of half-maximal effect; tags give direction and shape of the fitted curve.
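Throughout, for activity change, negative = inhibition: 0% = wells with enzyme and -100% = buffer wells without enzyme.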

Chain of UniProt B2RXH2 (B2RXH2 whole entry, looked up, the tested form may be a part): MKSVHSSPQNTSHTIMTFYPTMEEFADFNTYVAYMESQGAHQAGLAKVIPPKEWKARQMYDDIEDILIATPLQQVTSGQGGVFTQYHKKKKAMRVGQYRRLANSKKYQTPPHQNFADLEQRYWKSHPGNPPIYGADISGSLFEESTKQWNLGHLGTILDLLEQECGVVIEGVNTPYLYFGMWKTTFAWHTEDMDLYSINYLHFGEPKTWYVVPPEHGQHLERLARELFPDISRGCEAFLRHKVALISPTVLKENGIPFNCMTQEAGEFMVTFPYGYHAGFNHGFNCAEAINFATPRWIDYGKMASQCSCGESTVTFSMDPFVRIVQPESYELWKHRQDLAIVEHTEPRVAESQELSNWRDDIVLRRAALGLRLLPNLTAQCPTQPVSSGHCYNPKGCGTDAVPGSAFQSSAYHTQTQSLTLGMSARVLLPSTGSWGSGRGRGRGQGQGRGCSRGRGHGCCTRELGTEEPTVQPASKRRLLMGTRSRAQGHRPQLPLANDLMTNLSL

Row | SMILES | Potency | activity change, negative = inhibition
1 | O=c1cc(CSc2nnc3ccccn23)c2c(ccc3ccccc32)o1 | inconclusive: 28.2 µM [inhibitor, partial curve] | 
2 | Cc1cccc(Oc2nc(-c3ccccc3)cc(C)c2S(C)(=O)=O)c1C | inconclusive: 39.8 µM [inhibitor, single point] | 
3 | O=S(=O)(c1ccc(F)c(F)c1F)N1CCN(C(=S)NC2CC3CCC2C3)CC1 (stereo not drawn) | inconclusive: 8.91 µM [inhibitor, single point] | 
4 | COCCCNc1c2c3c(cccc3[nH]c1=O)C(=O)c1ccccc1-2 |  | inactive: -12.3%
5 | Cc1cc(N2CCC(C)CC2)nc(-c2ccccc2O)n1 | inconclusive: 25.1 µM [inhibitor, partial curve] | 
6 | CN(C)c1oc(-c2cccs2)nc1C#N | inconclusive: 15.8 µM [inhibitor, partial curve] | 
7 | O=C(Nc1ccc(F)cc1)Nc1ccc(NC(=O)c2ccccc2O)cc1 | inconclusive: 22.4 µM [inhibitor, partial curve] | 
8 | Cc1nc([N+](=O)[O-])cn1CCC#N |  | inactive: 1.98%
9 | COC(=O)c1cc(OC)c(OC)cc1N | inconclusive: 39.8 µM [inhibitor, single point] | 
10 | COc1ccc(Nc2ccc3c(c2)=NC2(CCCCC2)[N+]=3[O-])cc1 | inconclusive: 7.94 µM [inhibitor, full curve] | 
11 | CCNC(=O)[C@H]1O[C@H](n2cnc3c(N)nc(NCCc4ccc(CCC(=O)O)cc4)nc32)[C@@H](O)[C@@H]1O | inconclusive: 39.8 µM [inhibitor, single point] | 
12 | CO[C@]1(NC(=O)C2SC(=C(C(N)=O)C(=O)O)S2)C(=O)N2C(C(=O)O)=C(CSc3nnnn3C)CS[C@H]21 (stereo partly drawn) |  | inactive: 7.27% [at 25.5 µM]
13 | C[N+]1(C2CCC3CCCC2C3O)CCCC1 (stereo not drawn) |  | inactive: -0.63%
14 | O=C(Nc1ccc(S(=O)(=O)Nc2ncccn2)cc1)c1ccc(S(=O)(=O)N2CCCC2)cc1 |  | inactive: 0.986%
15 | O=[N+]([O-])c1ccccc1CNC(Cc1ccccc1)c1ccccc1 (stereo not drawn) |  | inactive: 2.4%
16 | CN=Cc1sc2ccccc2c1O | inconclusive: 39.8 µM [inhibitor, single point] | 
17 | CN(CCC#N)C(=O)CSc1ncnc2sc(-c3ccccc3)cc12 | inconclusive: 35.5 µM [inhibitor, single point] | 
18 | COC(=O)c1c(-c2ccccc2)csc1NC(=O)c1c(-c2ccccc2)noc1C | inconclusive: 35.5 µM [inhibitor, single point] | 
19 | N#C/C(=C/c1ccccc1[N+](=O)[O-])c1nc(C2CC2)cs1 |  | inactive: -1.61%
20 | O=C(CNS(=O)(=O)c1ccc(Cl)cc1)OCC(=O)N1CCCc2ccccc21 |  | inactive: 1.7%
21 | COc1ccccc1-c1oc2ccccc2c(=O)c1O | inconclusive: 31.6 µM [inhibitor, partial curve] | 
22 | O=C1c2ccccc2NC(c2ccc(Cl)cc2Cl)N1Cc1ccccc1 (stereo not drawn) | inconclusive: 6.31 µM [inhibitor, single point] | 
23 | COc1cc(CN2CCC(C(=O)NC3CCCC3)CC2)ccc1O | inconclusive: 31.6 µM [inhibitor, single point] | 
24 | O=C(COc1ccc(Cl)cc1)NCCN1CCCCC1 | inconclusive: 35.5 µM [inhibitor, single point] | 
25 | COC(=O)C1[C@H]2C(=O)N(Cc3cccs3)C[C@]23C=C[C@H]1O3 (stereo partly drawn) | inconclusive: 39.8 µM [inhibitor, single point] | 

Row | SMILES | Potency | activity change, negative = inhibition
26 | CCOC(=O)/C(=N/Nc1ccccc1)N1CCCc2ccccc21 |  | inactive: -0.512%
27 | Cc1cc(C)n(-c2nc(Nc3ccccc3C(F)(F)F)nc(-n3nc(C)cc3C)n2)n1 |  | inactive: 4.61%
28 | CCOC(=O)N1CCC(NC(=O)c2cc3c(C)nc4ccccc4c3o2)CC1 | inconclusive: 39.8 µM [inhibitor, single point] | 
29 | CC(=O)Nc1cc2c(=O)n(Cc3ccccc3)c(C)nc2cc1N1CCOCC1 | inconclusive: 35.5 µM [inhibitor, single point] | 
30 | CCOC(=O)Cc1nnc(Nc2ccc(C(=O)NC)cc2)c2ccccc12 |  | inactive: -5.46%
31 | COc1c(O)cc2oc(-c3ccc(O)c(O)c3)cc(=O)c2c1O | active: 10 µM | 
32 | Brc1ccc(-c2ncc3ccccn23)cc1 | inconclusive: 35.5 µM [inhibitor, single point] | 
33 | COc1ccc(-c2nc3n(c(=O)c2C#N)CCCS3)cc1 | inconclusive: 25.1 µM [inhibitor, partial curve] | 
34 | Cc1ccc(S(=O)(=O)Oc2cccc(/C=N/Nc3ccc(C(=O)O)cc3)c2)cc1 |  | inactive: -10.1%
35 | O=C(CN1C(=O)CCC1=O)Nc1nc(-c2ccc(Oc3ccccc3)cc2)cs1 |  | inactive: -7.18%
36 | O=C(c1ccc2c3c(cccc13)CC2)C1CCCN(C(=O)c2cccnc2)C1 (stereo not drawn) | inconclusive: 31.6 µM [inhibitor, partial curve] | 
37 | CCN(CC)CCN1C(=O)C(=O)/C(=C(/O)c2ccccc2)C1c1ccccc1F (stereo not drawn) |  | inactive: -9.65%
38 | CC1CCc2c(sc(Nc3nc4c(F)cccc4s3)c2C(N)=O)C1 (stereo not drawn) | inconclusive: 28.2 µM [inhibitor, partial curve] | 
39 | COc1ccccc1/C=C/C(=O)Nc1ccc(N2CCOCC2)cc1 |  | inactive: -16.4%
40 | Nc1c(C(=O)NCc2ccco2)sc2nc3c(cc12)C(=O)CCC3 |  | inactive: -3.23%
41 | CN1CCN(C2=C(Cl)C(=O)N(Cc3ccccc3)C2=O)CC1 | inconclusive: 39.8 µM [inhibitor, single point] | 
42 | Cc1onc(-c2ccccc2)c1C(=O)Nc1nnc(-c2ccncc2)s1 | inconclusive: 28.2 µM [inhibitor, partial curve] | 
43 | O=C(NNC(=O)c1ccc(NC(=O)c2ccccc2)cc1)c1ccccc1 | inconclusive: 39.8 µM [inhibitor, single point] | 
44 | Cn1cc(C(=O)c2ccc(Cl)cc2Cl)cc1C(=O)N/N=C(\N)COc1cccc(C(F)(F)F)c1 | inconclusive: 35.5 µM [inhibitor, single point] | 
45 | NC(=O)c1ccccc1N/C=C/C(=O)c1ccco1 | inconclusive: 35.5 µM [inhibitor, single point] | 
46 | CC(C)[C@H](O)C1=CCCCC1=O |  | inactive: -2.07%
47 | Cc1ccc(-c2ccc(/C=N\NC(=O)C3C(=O)NCC3c3ccccc3)o2)cc1Cl (stereo not drawn) | inconclusive: 28.2 µM [inhibitor, partial curve] | 
48 | O=C(Nc1ccc(Cl)cc1)Nc1ccc(N2CCC(C(F)(F)F)CC2)nc1 | inconclusive: 22.4 µM [inhibitor, partial curve] | 
49 | COc1ccc(S(=O)(=O)NNC(=O)c2cc3cc4ccccc4nc3s2)cc1 | inconclusive: 35.5 µM [inhibitor, single point] | 
50 | Cc1ccc(S(=O)(=O)Nc2cc(Cl)c(O)cc2C)cc1 |  | inactive: 1.84%

Row | SMILES | Potency | activity change, negative = inhibition
51 | COc1cccc(/C=C/C(=O)OCC(=O)Nc2ccc(N3CCOCC3)cc2)c1OC | inconclusive: 11.2 µM [inhibitor, partial curve] | 
52 | COc1cccc(C(C)NC(=O)Nc2cccc(C(F)(F)F)c2)c1 (stereo not drawn) |  | inactive: -1.07%
53 | CCOc1ccc(-c2nc(-c3ccccc3)no2)cc1OCC | inconclusive: 35.5 µM [inhibitor, single point] | 
54 | COc1ccc(NS(=O)(=O)c2cn(C)c(=O)n(C)c2=O)cc1 |  | inactive: 3.28%
55 | COc1ccc(S(=O)(=O)NCc2csc(-c3cccnc3)n2)cc1 | inconclusive: 39.8 µM [inhibitor, single point] | 
56 | Cc1ccc(S(=O)(=O)NNC(=O)c2cc3cc4ccccc4nc3s2)cc1 | inconclusive: 39.8 µM [inhibitor, single point] | 
57 | O=C(Nc1ccc(-c2csc(Nc3ccccc3)n2)cc1)c1cccc(C(F)(F)F)c1 | inconclusive: 28.2 µM [inhibitor, single point] | 
58 | Oc1[nH]c2ccc(Br)cc2c1N=NC(=S)N1CCOCC1 | inconclusive: 35.5 µM [inhibitor, single point] | 
59 | CCOC(=O)c1c(N)ssc1=S | inactive | 
60 | Cc1ccc(OCCN2C(=O)S/C(=C\c3ccc(C)o3)C2=O)cc1 | inconclusive: 39.8 µM [inhibitor, single point] | 
61 | CCN(CC)C(=S)NC(=O)c1cccnc1 | inconclusive: 20 µM [inhibitor, partial curve] | 
62 | COC(=O)NC(Nc1sc2c(c1C(N)=O)CCCC2)(C(=O)OC)C(F)(F)F (stereo not drawn) | inconclusive: 39.8 µM [inhibitor, single point] | 
63 | CCOC(=O)CSc1nnc(CSc2nc3sc4c(c3c(=O)[nH]2)CCC4)n1C |  | inactive: -3.78%
64 | CC(=O)c1ccc(Nc2cc(C)nc3c(C)cccc23)cc1 | inconclusive: 0.0251 µM [inhibitor, full curve] | 
65 | COc1ccc(-n2cnc3cc(NCc4cccs4)ccc32)cc1 | inconclusive: 31.6 µM [inhibitor, single point] | 
66 | CCOc1ccc(C(C)=O)cc1CSc1nnc(-c2ccoc2C)n1N |  | inactive: -4.57%
67 | CSc1nc2nc3c(cc2c(=O)n1-c1ccccc1C)CCCC3 |  | inactive: -21.7%
68 | O=C(Cn1cc(C(=O)c2cccs2)c2ccccc21)NCc1ccc2c(c1)OCO2 | inconclusive: 39.8 µM [inhibitor, single point] | 
69 | O=[N+]([O-])c1ccccc1-c1ccc(C(=S)N2CCCC2)o1 | active: 25.1 µM | 
70 | CC(=O)N=C1SC2CS(=O)(=O)CC2N1c1cccc(Cl)c1Cl (stereo not drawn) |  | inactive: 7.77%
71 | O=C(CN1CCCCCC1)N1c2ccccc2C=Cc2ccccc21 |  | inactive: -2.39%
72 | CCOc1cc(C2Nc3ccccc3C(=O)N2c2ccccc2)c(Br)cc1OCC(=O)O (stereo not drawn) | inconclusive: 28.2 µM [inhibitor, partial curve] | 
73 | Cc1cc(C(=O)COC(=O)CNC(=O)c2ccc(Cl)c(Cl)c2)c(C)n1Cc1ccco1 | inconclusive: 35.5 µM [inhibitor, single point] | 
